{"source": "the RNAGym collection of RNA variant scans (doi:10.1073/pnas.2313332121)", "parents": {"B1": {"name": "TPR 5TU (parent)", "chain": "GGAUCUUCUCGAUCUAACAAAAAAGACAAAUCUGCCACAAAGCUUGAGAGCAUCUUCGGAUGCAGAGGCGGCAGCCUUCGGUGGCGCGAUAGCGCCAACGUUCUCAACUAUGACACGCAAAACGCGUGCUCCGUUGAAUGGAGUUUAUCAUG"}}, "note": "Variants at the background level are over-represented here.", "data": [{"variants_of": "B1", "assay": "polymerase ribozyme fitness, log enrichment relative to wild type (log ratio); higher = more active; in vitro selection for triplet polymerase activity", "procedure,_shortened": "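Fitness compares each genotype's enrichment to that of the wild type on a logarithmic scale, averaging replicates with inverse-variance weights. The logarithm is base 2. Enrichment came from Illumina sequencing of input and output libraries after one triplicate round of in vitro selection, which included frozen incubation at −7 °C, of PCR-built, transcribed mutant libraries of each subunit of a heterodimeric triplet polymerase ribozyme. Only genotypes with ≥10 input reads and ≥1 read per output were kept.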", "values": [{"variant": "C14A A40U C93A C105A U146C", "polymerase ribozyme fitness (log ratio)": "≤ -4.2"}, {"variant": "U15A G94A", "polymerase ribozyme fitness (log ratio)": -0.258}, {"variant": "C14U A23U G34U C79A G94U U127A", "polymerase ribozyme fitness (log ratio)": "≤ -4.2"}, {"variant": "C14A A66G C85G A106C C116U", "polymerase ribozyme fitness (log ratio)": "≤ -4.2"}, {"variant": "U13G A49U", "polymerase ribozyme fitness (log ratio)": -2.21}, {"variant": "C14U A20C G48U C87G A91U C105G", "polymerase ribozyme fitness (log ratio)": "≤ -4.2"}, {"variant": "C14U G50C", "polymerase ribozyme fitness (log ratio)": -3.52}, {"variant": "C14U G42C U53G C85G", "polymerase ribozyme fitness (log ratio)": "≤ -4.2"}, {"variant": "C14U A22U U31G G62U C72U A91U C118A", "polymerase ribozyme fitness (log ratio)": "≤ -4.2"}, {"variant": "C14A C38A G42C U56G G67C G84A C108U U127C", "polymerase ribozyme fitness (log ratio)": "≤ -4.2"}, {"variant": "C14G A66U A91C U109C C116A", "polymerase ribozyme fitness (log ratio)": "≤ -4.2"}, {"variant": "C14G A24U U61G G80C G94A", "polymerase ribozyme fitness (log ratio)": "≤ -4.2"}, {"variant": "U13G A47U A49U C87G U101C", "polymerase ribozyme fitness (log ratio)": "≤ -4.2"}, {"variant": "U15A A16G G58U C69G C85U A89U C96U C108U", "polymerase ribozyme fitness (log ratio)": "≤ -4.2"}, {"variant": "C14A A17U U56G G74A C85G C93U G141C U146G", "polymerase ribozyme fitness (log ratio)": "≤ -4.2"}, {"variant": "C14G G62C G70C A91U", "polymerase ribozyme fitness (log ratio)": "≤ -4.2"}, {"variant": "C14G G50A G58C U82C G141C", "polymerase ribozyme fitness (log ratio)": -4.17}, {"variant": "C14G C18U C57U G65A G83A A106C G117U", "polymerase ribozyme fitness (log ratio)": "≤ -4.2"}, {"variant": "U13G C57U A66C", "polymerase ribozyme fitness (log ratio)": "≤ -4.2"}, {"variant": "C14U A17C C18G A20G G59U C85U A91U C118U G140A", "polymerase ribozyme fitness (log ratio)": "≤ -4.2"}, {"variant": "C14G A23C A26C G71A", "polymerase ribozyme fitness (log ratio)": "≤ -4.2"}, {"variant": "C14G A28G C51U A52U G88A U109G", "polymerase ribozyme fitness (log ratio)": "≤ -4.2"}, {"variant": "U15A A37G A106U U148A", "polymerase ribozyme fitness (log ratio)": "≤ -4.2"}, {"variant": "C14U A29U G71A G88C C93A", "polymerase ribozyme fitness (log ratio)": "≤ -4.2"}, {"variant": "C14G A49G", "polymerase ribozyme fitness (log ratio)": -2.92}, {"variant": "C14G A22C A49G G58A A60C G83U G126U", "polymerase ribozyme fitness (log ratio)": "≤ -4.2"}, {"variant": "U15A C43G C63U C85U U102A A107U U130G U135G A138C", "polymerase ribozyme fitness (log ratio)": "≤ -4.2"}, {"variant": "U13G G42C C69U C93U A119C", "polymerase ribozyme fitness (log ratio)": "≤ -4.2"}, {"variant": "U15A G74U C99U C123A", "polymerase ribozyme fitness (log ratio)": "≤ -4.2"}, {"variant": "C14A U135A A142C", "polymerase ribozyme fitness (log ratio)": -3.9}, {"variant": "C14U A17U A24G A41C C51U U56A C93A A115C", "polymerase ribozyme fitness (log ratio)": "≤ -4.2"}, {"variant": "C14U A29C U109C", "polymerase ribozyme fitness (log ratio)": "≤ -4.2"}, {"variant": "C14G C85A C95G C103U U146A", "polymerase ribozyme fitness (log ratio)": "≤ -4.2"}, {"variant": "C14A C38U C63U A98U C108G U109G A110C C118G G141A", "polymerase ribozyme fitness (log ratio)": "≤ -4.2"}, {"variant": "C14U G92A C103G", "polymerase ribozyme fitness (log ratio)": "≤ -4.2"}, {"variant": "U13G C35A G50A C54A C76G C87G A89U A107C G141C", "polymerase ribozyme fitness (log ratio)": "≤ -4.2"}, {"variant": "C14G G46A G58C C93U G143U A147C", "polymerase ribozyme fitness (log ratio)": "≤ -4.2"}, {"variant": "U15C A16U U101G A122U A137U G143C", "polymerase ribozyme fitness (log ratio)": "≤ -4.2"}, {"variant": "C14G A16G C18A G25U U33G G42C C54U C85G A91U A107G", "polymerase ribozyme fitness (log ratio)": "≤ -4.2"}, {"variant": "U13G A47C G88C A91U C105U", "polymerase ribozyme fitness (log ratio)": "≤ -4.2"}, {"variant": "C14G A24C", "polymerase ribozyme fitness (log ratio)": -3.63}, {"variant": "C14G U55A C57U G86U C103A", "polymerase ribozyme fitness (log ratio)": "≤ -4.2"}, {"variant": "C14G U78A G86A", "polymerase ribozyme fitness (log ratio)": "≤ -4.2"}, {"variant": "C14U A21G A29G C85U C116A", "polymerase ribozyme fitness (log ratio)": -4.2}, {"variant": "C14G G50C A91U A98U G124A", "polymerase ribozyme fitness (log ratio)": "≤ -4.2"}, {"variant": "C14G A40G", "polymerase ribozyme fitness (log ratio)": "≤ -4.2"}, {"variant": "C14G A26C G70C G94C G133A U144A", "polymerase ribozyme fitness (log ratio)": "≤ -4.2"}, {"variant": "C14G C36A A41U C87U", "polymerase ribozyme fitness (log ratio)": "≤ -4.2"}, {"variant": "U15A A28C G42A C85A A91U C95U A107G C114U G143U", "polymerase ribozyme fitness (log ratio)": "≤ -4.2"}, {"variant": "C14U A24U C38U C57U U61A C79G U82A", "polymerase ribozyme fitness (log ratio)": "≤ -4.2"}, {"variant": "C14U A17U C95U C108G", "polymerase ribozyme fitness (log ratio)": "≤ -4.2"}, {"variant": "C14G A28U G50U G83A", "polymerase ribozyme fitness (log ratio)": "≤ -4.2"}, {"variant": "C14A A40G G58C C87G U148C", "polymerase ribozyme fitness (log ratio)": "≤ -4.2"}, {"variant": "C14A U45A G92U U104G A107C", "polymerase ribozyme fitness (log ratio)": "≤ -4.2"}, {"variant": "C14G C99G", "polymerase ribozyme fitness (log ratio)": -3.32}, {"variant": "C14U A29U U55G G81C G83A A115U", "polymerase ribozyme fitness (log ratio)": "≤ -4.2"}, {"variant": "C14G G86U G141A", "polymerase ribozyme fitness (log ratio)": "≤ -4.2"}, {"variant": "C14G A22G C43U C96U U109C C114A", "polymerase ribozyme fitness (log ratio)": "≤ -4.2"}, {"variant": "C14A A26C U33C C87G A89G", "polymerase ribozyme fitness (log ratio)": "≤ -4.2"}, {"variant": "C14U C93A A97G", "polymerase ribozyme fitness (log ratio)": "≤ -4.2"}, {"variant": "C14U A17U A19C U44A G68A A73G G86U C96U C149G", "polymerase ribozyme fitness (log ratio)": "≤ -4.2"}, {"variant": "C14A A47G C85U C105A G128C A137C A150C", "polymerase ribozyme fitness (log ratio)": "≤ -4.2"}, {"variant": "C14U A23G A47U G50C C93U U144A", "polymerase ribozyme fitness (log ratio)": "≤ -4.2"}, {"variant": "C14U A37C U56A A73C G74U A91C C116A A119C", "polymerase ribozyme fitness (log ratio)": "≤ -4.2"}, {"variant": "C14G A40C G50A G71C A97G A106G A138U", "polymerase ribozyme fitness (log ratio)": "≤ -4.2"}, {"variant": "C14A A28U C76A U77G C93A", "polymerase ribozyme fitness (log ratio)": "≤ -4.2"}, {"variant": "C14U A52C U56A A97U A98U", "polymerase ribozyme fitness (log ratio)": -4.07}, {"variant": "C14U C51U G70A C116A C129U", "polymerase ribozyme fitness (log ratio)": "≤ -4.2"}, {"variant": "C14U A28U A52G G59A C93U A113U A147G", "polymerase ribozyme fitness (log ratio)": "≤ -4.2"}, {"variant": "C14G A30U U61A G92A C99A A115G", "polymerase ribozyme fitness (log ratio)": "≤ -4.2"}, {"variant": "U13G C51G A91C", "polymerase ribozyme fitness (log ratio)": "≤ -4.2"}, {"variant": "U15A A21C A73G C95U U135G A138G U139C", "polymerase ribozyme fitness (log ratio)": "≤ -4.2"}, {"variant": "C14U A20C G46C U53A U102C A106G G140U C149G", "polymerase ribozyme fitness (log ratio)": "≤ -4.2"}, {"variant": "C14G G42A U45G A49C C54G A138U U139A", "polymerase ribozyme fitness (log ratio)": "≤ -4.2"}, {"variant": "C14G A23G C76G U82A G83C G133A", "polymerase ribozyme fitness (log ratio)": "≤ -4.2"}, {"variant": "C14A G42C C95U C105U", "polymerase ribozyme fitness (log ratio)": "≤ -4.2"}, {"variant": "U13G C35A A52C", "polymerase ribozyme fitness (log ratio)": "≤ -4.2"}, {"variant": "C14G C18U A52G G81U G92A C131G", "polymerase ribozyme fitness (log ratio)": "≤ -4.2"}, {"variant": "C14U A23U G46A C85U G88A", "polymerase ribozyme fitness (log ratio)": "≤ -4.2"}, {"variant": "C14U A47C C51U G58C A66U C95A C131G", "polymerase ribozyme fitness (log ratio)": "≤ -4.2"}, {"variant": "C14U C18G U104G C108G A115G U144G A147U", "polymerase ribozyme fitness (log ratio)": "≤ -4.2"}, {"variant": "C14A A21C U45A A60U G62A A91G", "polymerase ribozyme fitness (log ratio)": "≤ -4.2"}, {"variant": "U15A G34C U55C U77A C93G C108U", "polymerase ribozyme fitness (log ratio)": "≤ -4.2"}, {"variant": "U15A C35U U55A C96G A107U U135C", "polymerase ribozyme fitness (log ratio)": "≤ -4.2"}]}]}
